From the supplement of paper PMC8728848
This is one part of the list.

Tests used:
Assay in all cases: glycan array binding signal (z-score within array); higher = stronger binding
Conditions in all cases: glycan notation: IUPAC condensed, linker removed
[1] = biological target: Fuc(a1-2)[Gal(a1-3)]Gal(b1-4)Glc
Procedure, shortened: (§1)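 Columns mapping to the same glycan were averaged after glycan names were converted to IUPAC-condensed notation. The data come from 3228 arrays in the Consortium for Functional Glycomics database, limited to those with an available protein sequence. Binding is reported as a within-array Z-score averaged across arrays of one protein sequence and across linkers.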

[2] = biological target: Fuc(a1-2)[Gal(a1-3)]Gal(b1-4)GlcNAc
Procedure, shortened: as §1

[3] = biological target: Fuc(a1-2)[Gal(a1-3)]Gal(b1-4)GlcNAc(b1-2)Man(a1-3)[Fuc(a1-2)[Gal(a1-3)]Gal(b1-4)GlcNAc(b1-2)Man(a1-6)]Man(b1-4)GlcNAc(b1-4)GlcNAc
Procedure, shortened: as §1

[4] = biological target: Fuc(a1-2)[Gal(a1-3)]Gal(b1-4)GlcNAc(b1-2)Man(a1-3)[Fuc(a1-2)[Gal(a1-3)]Gal(b1-4)GlcNAc(b1-2)Man(a1-6)]Man(b1-4)GlcNAc(b1-4)[Fuc(a1-6)]GlcNAc
Procedure, shortened: as §1

[5] = biological target: Fuc(a1-2)[Gal(a1-3)]Gal(b1-4)GlcNAc(b1-3)GalNAc
Procedure, shortened: as §1

[6] = biological target: Fuc(a1-2)[Gal(a1-3)]Gal(b1-4)[Fuc(a1-3)]Glc
Procedure, shortened: as §1

[7] = biological target: Fuc(a1-2)[Gal(a1-3)]Gal(b1-4)[Fuc(a1-3)]GlcNAc
Procedure, shortened: as §1

[8] = biological target: Fuc(a1-2)[Gal(a1-3)]Gal(b1-4)[Fuc(a1-3)]GlcNAc(b1-3)GalNAc
Procedure, shortened: as §1

[9] = biological target: Fuc(a1-2)[Gal(a1-4)]Gal(b1-4)GlcNAc
Procedure, shortened: as §1

[10] = biological target: Fuc(a1-2)[GalNAc(a1-3)]Gal
Procedure, shortened: as §1

[11] = biological target: Fuc(a1-2)[GalNAc(a1-3)]Gal(b1-3)GalNAc(a1-3)[Fuc(a1-2)]Gal(b1-4)GlcNAc
Procedure, shortened: as §1

[12] = biological target: Fuc(a1-2)[GalNAc(a1-3)]Gal(b1-3)GlcNAc
Procedure, shortened: as §1

[13] = biological target: Fuc(a1-2)[GalNAc(a1-3)]Gal(b1-3)GlcNAc(b1-2)Man(a1-3)[Fuc(a1-2)[GalNAc(a1-3)]Gal(b1-3)GlcNAc(b1-2)Man(a1-6)]Man(b1-4)GlcNAc(b1-4)GlcNAc
Procedure, shortened: as §1

[14] = biological target: Fuc(a1-2)[GalNAc(a1-3)]Gal(b1-3)GlcNAc(b1-2)Man(a1-3)[Fuc(a1-2)[GalNAc(a1-3)]Gal(b1-3)GlcNAc(b1-2)Man(a1-6)]Man(b1-4)GlcNAc(b1-4)[Fuc(a1-6)]GlcNAc
Procedure, shortened: as §1

[15] = biological target: Fuc(a1-2)[GalNAc(a1-3)]Gal(b1-3)GlcNAc(b1-3)GalNAc
Procedure, shortened: as §1

[16] = biological target: Fuc(a1-2)[GalNAc(a1-3)]Gal(b1-4)Glc
Procedure, shortened: as §1

[17] = biological target: Fuc(a1-2)[GalNAc(a1-3)]Gal(b1-4)GlcNAc
Procedure, shortened: as §1

[18] = biological target: Fuc(a1-2)[GalNAc(a1-3)]Gal(b1-4)GlcNAc(b1-2)Man(a1-3)[Fuc(a1-2)[GalNAc(a1-3)]Gal(b1-4)GlcNAc(b1-2)Man(a1-6)]Man(b1-4)GlcNAc(b1-4)GlcNAc
Procedure, shortened: as §1

[19] = biological target: Fuc(a1-2)[GalNAc(a1-3)]Gal(b1-4)GlcNAc(b1-2)Man(a1-3)[Fuc(a1-2)[GalNAc(a1-3)]Gal(b1-4)GlcNAc(b1-2)Man(a1-6)]Man(b1-4)GlcNAc(b1-4)[Fuc(a1-6)]GlcNAc
Procedure, shortened: as §1

[20] = biological target: Fuc(a1-2)[GalNAc(a1-3)]Gal(b1-4)GlcNAc(b1-3)Gal(b1-4)GlcNAc
Procedure, shortened: as §1

[21] = biological target: Fuc(a1-2)[GalNAc(a1-3)]Gal(b1-4)GlcNAc(b1-3)Gal(b1-4)GlcNAc(b1-3)Gal(b1-4)GlcNAc
Procedure, shortened: as §1

[22] = biological target: Fuc(a1-2)[GalNAc(a1-3)]Gal(b1-4)GlcNAc(b1-3)GalNAc
Procedure, shortened: as §1

[23] = biological target: Fuc(a1-2)[GalNAc(a1-3)]Gal(b1-4)[Fuc(a1-3)]GlcNAc
Procedure, shortened: as §1

[24] = biological target: Fuc(a1-2)[GalNAc(a1-3)]Gal(b1-4)[Fuc(a1-3)]GlcNAc(b1-3)GalNAc
Procedure, shortened: as §1

[25] = biological target: Fuc(a1-2)[GalNAc(a1-4)]Gal(b1-4)GlcNAc
Procedure, shortened: as §1

[26] = biological target: Fuc(a1-2)[GalNAc(b1-3)]Gal
Procedure, shortened: as §1

Fuc(a1-3)GlcNAc = biological target: Fuc(a1-3)GlcNAc
Procedure, shortened: as §1

[27] = biological target: Fuc(a1-3)[Gal(b1-4)]Glc6S
Procedure, shortened: as §1

[28] = biological target: Fuc(a1-3)[Gal(b1-4)]GlcNAc
Procedure, shortened: as §1

[29] = biological target: Fuc(a1-3)[Gal(b1-4)]GlcNAc(b1-2)Man(a1-3)[Fuc(a1-3)[Gal(b1-4)]GlcNAc(b1-2)Man(a1-6)]Man(b1-4)GlcNAc(b1-4)GlcNAc
Procedure, shortened: as §1

[30] = biological target: Fuc(a1-3)[Gal(b1-4)]GlcNAc(b1-2)Man(a1-3)[Fuc(a1-3)[Gal(b1-4)]GlcNAc(b1-2)Man(a1-6)]Man(b1-4)GlcNAc(b1-4)[Fuc(a1-6)]GlcNAc
Procedure, shortened: as §1

[31] = biological target: Fuc(a1-3)[Gal(b1-4)]GlcNAc(b1-3)Gal(b1-3)[Fuc(a1-4)]GlcNAc
Procedure, shortened: as §1

[32] = biological target: Fuc(a1-3)[Gal(b1-4)]GlcNAc(b1-3)GalNAc
Procedure, shortened: as §1

[33] = biological target: Fuc(a1-3)[Gal(b1-4)]GlcNAc(b1-4)Gal(b1-4)[Fuc(a1-3)]GlcNAc
Procedure, shortened: as §1

[34] = biological target: Fuc(a1-3)[Gal(b1-4)]GlcNAc(b1-4)Gal(b1-4)[Fuc(a1-3)]GlcNAc(b1-4)Gal(b1-4)[Fuc(a1-3)]GlcNAc
Procedure, shortened: as §1

[35] = biological target: Fuc(a1-3)[Gal(b1-4)]GlcNAc(b1-6)GalNAc
Procedure, shortened: as §1

[36] = biological target: Fuc(a1-3)[Gal(b1-4)]GlcNAc(b1-6)[Gal(b1-3)GlcNAc(b1-3)]Gal(b1-4)Glc
Procedure, shortened: as §1

[37] = biological target: Fuc(a1-3)[Gal(b1-4)]GlcNAc(b1-6)[Neu5Ac(a2-3)Gal(b1-3)]GalNAc
Procedure, shortened: as §1

[38] = biological target: Fuc(a1-3)[Gal(b1-4)]GlcNAc6S
Procedure, shortened: as §1

[39] = biological target: Fuc(a1-3)[Gal3S(b1-4)]GlcNAc
Procedure, shortened: as §1

[40] = biological target: Fuc(a1-3)[Gal3S(b1-4)]GlcNAc6S
Procedure, shortened: as §1

[41] = biological target: Fuc(a1-3)[GalNAc(b1-4)]GlcNAc
Procedure, shortened: as §1

Fuc(a1-4)GlcNAc = biological target: Fuc(a1-4)GlcNAc
Procedure, shortened: as §1

Fuc(b1-3)GlcNAc = biological target: Fuc(b1-3)GlcNAc
Procedure, shortened: as §1

Gal(a1-2)Gal = biological target: Gal(a1-2)Gal
Procedure, shortened: as §1

B1: PpFlo3 (Pichia pastoris) (protein)
chain: MGSSHHHHHHSSGLVPRGSHMQESGNGTTSDTAYACDIGATPFDGFNATIYQYQASDDNSIQDPVFMSTGYLQRNQLHSTTGVTNPGFNIFTAGVATTTLYGIPNVNYQNMLLELKGYFRADASGNYGLSLRNIDDSAILFFGRETAFECCNENLIPLDEAPTDYSLFTIKEGEASTNPDSYTYTQYLEAGRYYPVRTFFANIRTRAVFNFTMTLPDGSELTDFQNYIFQFGALNQ
glycan array binding signal (z-score) [1]: -0.275
glycan array binding signal (z-score) [2]: -0.222
glycan array binding signal (z-score) [3]: -0.269
glycan array binding signal (z-score) [4]: -0.238
glycan array binding signal (z-score) [5]: -0.284
glycan array binding signal (z-score) [6]: -0.254
glycan array binding signal (z-score) [7]: -0.25
glycan array binding signal (z-score) [8]: -0.271
glycan array binding signal (z-score) [9]: -0.129
glycan array binding signal (z-score) [10]: -0.298
glycan array binding signal (z-score) [11]: -0.259
glycan array binding signal (z-score) [12]: -0.276
glycan array binding signal (z-score) [13]: 2.65
glycan array binding signal (z-score) [14]: -0.266
glycan array binding signal (z-score) [15]: -0.014
glycan array binding signal (z-score) [16]: -0.268
glycan array binding signal (z-score) [17]: -0.222
glycan array binding signal (z-score) [18]: -0.098
glycan array binding signal (z-score) [19]: -0.264
glycan array binding signal (z-score) [20]: -0.27
glycan array binding signal (z-score) [21]: -0.303
glycan array binding signal (z-score) [22]: -0.16
glycan array binding signal (z-score) [23]: -0.222
glycan array binding signal (z-score) [24]: -0.229
glycan array binding signal (z-score) [25]: -0.288
glycan array binding signal (z-score) [26]: -0.271
glycan array binding signal (z-score) (Fuc(a1-3)GlcNAc): -0.269
glycan array binding signal (z-score) [27]: -0.274
glycan array binding signal (z-score) [28]: 2.18
glycan array binding signal (z-score) [29]: -0.145
glycan array binding signal (z-score) [30]: -0.27
glycan array binding signal (z-score) [31]: -0.307
glycan array binding signal (z-score) [32]: -0.21
glycan array binding signal (z-score) [33]: 2.75
glycan array binding signal (z-score) [34]: 1.69
glycan array binding signal (z-score) [35]: -0.238
glycan array binding signal (z-score) [36]: -0.251
glycan array binding signal (z-score) [37]: -0.229
glycan array binding signal (z-score) [38]: -0.294
glycan array binding signal (z-score) [39]: -0.273
glycan array binding signal (z-score) [40]: -0.28
glycan array binding signal (z-score) [41]: -0.279
glycan array binding signal (z-score) (Fuc(a1-4)GlcNAc): -0.255
glycan array binding signal (z-score) (Fuc(b1-3)GlcNAc): -0.229
glycan array binding signal (z-score) (Gal(a1-2)Gal): -0.243
